From the supplement of paper PMC12009370
The other results are listed elsewhere or left out. Repeats are few or missing, and single values can be far off.

tested on: SK-N-AS; experiment: drug sensitivity score (DSS), single drug with vehicle (DSS (score)); neuroblastoma lines; SL-176 and GSK2830371 are WIP1 inhibitors; higher = more cytotoxic; extreme values may be limits of the assay; settings: 72 h; co-treatment: vehicle (DMSO)
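Further: 384-well screen with five concentrations per compound and a luminescence read-out, DSS computed from the fitted dose-response curve combining IC50 with minimum and maximum inhibition.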

Structure (SMILES) | drug sensitivity score
S=c1[nH]cnc2nc[nH]c12 [Mercaptopurine] | 6.9
CC[C@H](C)C(=O)O[C@H]1C[C@H](O)C=C2C=C[C@H](C)[C@H](CC[C@@H](O)C[C@@H](O)CC(=O)O)[C@H]21 [Pravastatin] | 0
NC(=S)N/N=C/c1ncccc1N [Triapine] | 1.4
CC[C@H](Nc1ncnc2[nH]cnc12)c1nc2cccc(F)c2c(=O)n1-c1ccccc1 [Idelalisib] | 0.1
CC1(C)CNc2cc(NC(=O)c3cccnc3NCc3ccncc3)ccc21 [Motesanib] | 0
Cc1cnc(-c2ccccc2C(C)C)nc1NCc1ccc(-n2ccnn2)cc1 | 0.1
Cc1ccc(-n2nc(C(C)(C)C)cc2NC(=O)Nc2ccc(OCCN3CCOCC3)c3ccccc23)cc1 [Doramapimod] | 2.1
COc1cc2nccc(Oc3ccc(NC(=O)Nc4cc(C)on4)c(Cl)c3)c2cc1OC [Tivozanib] | 2.2
O=c1sn(-c2cccc3ccccc23)c(=O)n1Cc1ccccc1 [Tideglusib] | 0
CC(C)(O)CC(=O)NCCn1ccc2ncnc(Nc3ccc(Oc4cccc(C(F)(F)F)c4)c(Cl)c3)c21 | 0
Cc1c(-c2c(-c3ccc(F)o3)sc3ncnc(O[C@H](Cc4ccccc4OCc4ccnn4CC(F)(F)F)C(=O)O)c23)ccc(OCCN2CCN(C)CC2)c1Cl | 1.9
Cn1cc(-c2ccc(F)c(C(F)(F)F)c2)nc1C1CCN(c2ncnc3[nH]ncc23)CC1 | 0
Nc1nc(NC2CC2)cc(-c2cccc(Cl)c2Cl)n1 | 10.5
CNC(=O)c1cc(COc2nnc(Nc3ccc(Cl)cc3)c3ccoc23)ccn1 [Telatinib] | 0
